Here are results for 52 compounds from PubChem BioAssay AID1346428 (National Center for Advancing Translational Sciences (NCATS), 2018).

Molecules are shown by their SMILES. In all, about 48,000 compounds went through this assay and about 1,200 (2.5%) were called active. Not shown: some 2% with an inconclusive outcome.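 Rule for the calls: active = activation of at least 60% and not above a set upper limit (about 1 call in 100 departs from these limits); inconclusive = activation of 40% to 60%, or above that upper limit; inactive = activation under 40%.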 This is one part of the list.

UniProt O75388, sequence (O75388 whole entry, looked up): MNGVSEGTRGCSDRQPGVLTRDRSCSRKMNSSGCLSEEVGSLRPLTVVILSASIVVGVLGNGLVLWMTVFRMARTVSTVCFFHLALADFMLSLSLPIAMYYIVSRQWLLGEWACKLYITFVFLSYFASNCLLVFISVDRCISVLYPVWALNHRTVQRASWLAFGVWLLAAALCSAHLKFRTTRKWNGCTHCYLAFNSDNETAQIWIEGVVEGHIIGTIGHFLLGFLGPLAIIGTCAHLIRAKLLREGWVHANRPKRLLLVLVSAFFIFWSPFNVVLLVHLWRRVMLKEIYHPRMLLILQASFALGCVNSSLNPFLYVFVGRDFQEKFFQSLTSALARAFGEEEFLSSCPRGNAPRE

This assay has as its target Probable G-protein coupled receptor 32 (Homo sapiens) (UniProt O75388). Kind of assay: qHTS for Agonists of Human Resolvin D1 Receptor DRV1. Note: 0% is about no effect. Conditions: CHO-K1 GPR32 beta-arrestin PathHunter luminescence, 90 min; at 76.9 µM; active compounds read high; zero percent set by DMSO-only wells. The procedure, abridged:
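CHO-K1 cells stably expressing ProLink-tagged GPR32 and Enzyme Activator-tagged beta-arrestin were seeded at 2,500 cells/well overnight, exposed to compounds for 90 min at 37 °C, then read by beta-Gal complementation chemiluminescence after 1 h detection reagent.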
In general terms: qHTS replaces the single test concentration by a dilution series.
Turning to `Cc1cn2c(=O)cc(COC(=O)c3ccccc3F)nc2s1`, the activation is inactive: 4.98%. Then `Cc1ccc(CNS(=O)(=O)c2cc3c(cc2C)N(C)CCO3)cc1`, with inactive: -19.7%; and `CCc1ccc(NC(=O)CSc2nc3c(sc4ccccc43)c(=O)n2CCN(CC)CC)cc1`, with inactive: 33.8%.

Consider `Nc1nc2c(cnn2CCc2ccccc2)c2nc(-c3ccco3)nn12`, for which the activation was inactive: -1.57%. As to `O=C(CN1C(=O)C2(SCC(=O)N2c2ccccc2)c2ccccc21)NCCc1ccccc1` (configuration not stated), the activation was inactive: -5.7%. For `Cc1ccc(C(=O)Nc2ccccc2C(=O)OCc2cc(=O)n3nc(C4CC4)sc3n2)cc1` the value was inactive: -3.37%. Then `COc1cc(C)ccc1OCCSc1nc2ccc(NC(=O)c3cccs3)cc2s1`, with inactive: -1.73%. `COc1cccc(C(=O)Nc2nc3nc(-c4ccccc4)cc(=O)n3[nH]2)c1`: the activation is inactive: 25.3%. As to `O=C(Cn1c(=O)nc(-c2ccccc2)c2ccccc21)NCCc1ccccc1`, the activation is inactive: -13.2%. As to `CCOC(=O)c1c(-c2ccc(C)cc2)csc1NC(=O)c1cc(=O)c2cc(C)ccc2o1`, the activation is inactive: -14.6%. For `O=C1c2oc3ccccc3c(=O)c2C(c2cccc(O)c2)N1c1nncs1` (configuration not stated) the value was inactive: -17.7%. As for `COc1cccc(CNC(=O)C2=C(C)C(=O)OC23CCN(C(C)=O)CC3)c1OC`, the activation was inactive: -6.14%. As for `COc1ccc(-c2oc3ncn4nc(COc5cccc(C)c5C)nc4c3c2-c2ccc(OC)cc2)cc1`, the activation was inactive: -8.73%.

With `COc1cc(Nc2nc(SCc3ccc(Cl)cc3)nc3ccccc23)cc(OC)c1`, the activation was inactive: -22.9%.

`CC(=O)c1ccc(NC(=O)CN2C(=O)CN(C)C(=O)c3ccccc32)cc1`: the activation was inactive: 1.63%. For `CN(C)c1cccc(C(=O)N2CCC(c3c[nH]c4ccccc34)(c3c[nH]c4ccccc34)CC2)c1` the value was inactive: 4.24%; for `Cc1cccc(CNC(=O)c2ccc(N3Cc4ccccc4Oc4ncccc43)s2)c1`, inactive: -13.1%; for `CCC(C(=O)NCc1cc(OC)ccc1OC)n1nc(C)c2sc3ccccc3c2c1=O` (configuration not stated), inactive: 5.09%. For `COc1cc(C(=O)Nc2ccc(NC(=O)c3ccc(C(C)(C)C)cc3)cc2)cc(OC)c1OC`, the activation is inactive: 8.41%.

As to `O=C(COCc1cc(-c2cccs2)on1)N1CCN(c2ccccc2)CC1`, the activation is inactive: -21.1%.

For the compound `CC(C)c1ccc(N2C(=O)CSC23C(=O)N(Cc2cccc(F)c2)c2ccccc23)cc1` (configuration not stated), the activation is inactive: -15.6%. Consider `COc1ccccc1C(=O)Nc1ccc2nc(SCCOc3ccccc3C)sc2c1`, for which the activation was inactive: -7.61%. For `Fc1ccc(NCc2nnc3n2CCCCC3)cc1Cl` the value was inactive: -8.37%.

On to `COc1ccc(OC)c(CNC(=O)C2CCCN(c3ncnc4onc(-c5ccc(F)cc5)c34)C2)c1` (configuration not stated), for which the activation was inactive: 3.09%. For the compound `Cc1ccc(/C=C(\C#N)c2nc(-c3ccc(-c4ccccc4)cc3)cs2)cc1`, the activation is inactive: 1.81%. `CCOC(=O)c1cccc(NC(=O)CCS(=O)(=O)c2ccc3c(c2)CC(=O)N3C)c1`: the activation was inactive: -8.22%. On to `Cc1ccc(S(=O)(=O)C2(C(=O)Nc3ccc(Cl)c(C(F)(F)F)c3)CC2)cc1`, for which the activation is inactive: 7.48%. Regarding `CCOc1ccccc1CNC(=O)CCc1c(C)nn(-c2ccc(N3CCCC3)nn2)c1C`, the activation is inactive: -5.69%. In the case of `COc1ccc(OC)c(C(=O)CC2(O)C(=O)N(Cc3ccccc3C)c3ccccc32)c1` (configuration not stated), the activation is inactive: -21.5%.

For the compound `Cc1ccc(-n2c(=O)c3cccnc3n2CC(=O)Nc2cc(C)cc(C)c2)cc1`, the activation was inactive: 1.83%. `COc1ccccc1CNC(=O)Cn1c(=O)nc(-c2ccccc2F)c2cc(Cl)ccc21`: the activation is inactive: -0.255%.

Turning to `CC(C)c1ccc(NC(=O)Cn2c(=O)n(CC3CCC(C(=O)NCCc4ccccc4)CC3)c(=O)c3ccccc32)cc1` (configuration not stated), the activation was inactive: 13.4%. Then `COC(=O)c1ccc(Cl)cc1NC(=O)NCCc1c(C)nn(C)c1C`, with inactive: 32.8%; and `Cc1c(C(=O)N2CCOCC2)oc2c1-c1nn(CC(=O)NCc3cccc(F)c3)cc1CC2`, with inactive: -3.97%; and `CC(C)(C)C1CCc2c(sc(NC(=O)Cn3nnc(-c4ccccc4Cl)n3)c2C#N)C1` (configuration not stated), with active: 89.3%. For `COc1ccc(-n2ccnc2SCC(=O)Nc2ccc3c(c2)OCO3)cc1` the value was inactive: -15.6%; for `Cc1ccc(CNc2ccc(-c3nc(-c4ccncc4)no3)cc2[N+](=O)[O-])cc1`, inactive: 6.77%; for `CCOC(=O)c1c(C)[nH]c(C)c1S(=O)(=O)N1CCC(C(=O)Nc2cc(C)ccn2)CC1`, inactive: -1.75%. For `Cc1ccc(Cl)cc1N1CCN(C(=O)C2CCC(CNS(=O)(=O)c3cccs3)CC2)CC1` (configuration not stated) the value was inactive: -18.8%; for `Cc1cccc(N2CCN(C(=O)CS(=O)(=O)c3cccc4nsnc34)CC2)c1C`, inactive: 23.5%.

For `Cc1ccc2nc(COc3ccccc3NC(=O)COc3ccc(F)cc3)cc(=O)n2c1`, the activation is inactive: -5.26%. Then `CCc1ccccc1NS(=O)(=O)c1ccc2[nH]cc(C(=O)N(CC(C)C)CC(C)C)c(=O)c2c1`, with inactive: -8.34%; and `Cc1ccc(-c2nc(S(=O)(=O)c3ccccc3)c(N3CCN(c4ccccc4)CC3)o2)cc1`, with inactive: -3.08%; and `CCc1ccccc1N(CC)C(=O)c1c(C)oc2ncn(C)c(=O)c12`, with inactive: -10.9%.

In the case of `COc1ccccc1N1CCN(C(=O)c2cc(CC(C)C)on2)CC1`, the activation was inactive: 22.4%. Then `Cc1cccc(C(C)C)c1NC(=O)Cn1c(=O)oc2cc(S(=O)(=O)N3CCCC3)ccc21`, with inactive: -9%. Then `COc1ccc(-c2nc(SCC(=O)Nc3ccc4c(c3)OCCO4)c(-c3ccc(F)cc3)[nH]2)cc1`, with inactive: 15.8%. For `O=C(Nc1ccccc1C(=O)OCc1cc(=O)n2c3c(sc2n1)CCCC3)c1ccc(F)cc1` the value was inactive: -22.7%; for `COc1ccc(NC(=O)C2CCN(S(=O)(=O)c3ccc4c(c3)CCCC(=O)N4)CC2)cc1OC`, inactive: -20.8%; for `CCc1ccc2nc(N(CCN(CC)CC)C(=O)c3cccs3)sc2c1`, inactive: 44.3%. Regarding `COc1ccc(OC)c(/C=C/c2nc3ccccc3c(=O)n2-c2ccc(F)c(Cl)c2)c1`, the activation is inactive: -12.9%. Then `Cc1ccc(NC(=O)C2CCCN(S(=O)(=O)c3c(C)n[nH]c3C)C2)c(C)c1` (configuration not stated), with inactive: -1.48%.
